The values that follow come from article PMC5108317.

The chains behind the UniProt entries cited, without tags or fusion partners. Where a name states a change or a piece, a line headed by the entry shows the natural chain unless it says otherwise. Residues count along the entry.
UniProt Q676U5: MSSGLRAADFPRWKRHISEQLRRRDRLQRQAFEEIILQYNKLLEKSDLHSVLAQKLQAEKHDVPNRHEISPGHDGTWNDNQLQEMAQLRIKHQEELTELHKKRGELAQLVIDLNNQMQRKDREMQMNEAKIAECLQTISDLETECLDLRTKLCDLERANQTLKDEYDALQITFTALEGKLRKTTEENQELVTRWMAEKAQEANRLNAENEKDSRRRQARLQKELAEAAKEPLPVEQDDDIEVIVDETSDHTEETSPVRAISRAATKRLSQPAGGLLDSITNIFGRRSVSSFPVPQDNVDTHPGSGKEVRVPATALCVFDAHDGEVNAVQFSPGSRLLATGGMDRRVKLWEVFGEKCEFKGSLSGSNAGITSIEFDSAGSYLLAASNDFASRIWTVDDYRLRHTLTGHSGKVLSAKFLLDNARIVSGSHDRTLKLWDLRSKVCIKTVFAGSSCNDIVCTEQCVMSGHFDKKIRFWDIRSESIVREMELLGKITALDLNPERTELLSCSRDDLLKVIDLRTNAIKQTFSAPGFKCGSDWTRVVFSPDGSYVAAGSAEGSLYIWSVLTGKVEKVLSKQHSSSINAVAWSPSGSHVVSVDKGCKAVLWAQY
FLAG-ATG16L1_(1)_(–300): residues 1-300 of Q676U5
UniProt O94817: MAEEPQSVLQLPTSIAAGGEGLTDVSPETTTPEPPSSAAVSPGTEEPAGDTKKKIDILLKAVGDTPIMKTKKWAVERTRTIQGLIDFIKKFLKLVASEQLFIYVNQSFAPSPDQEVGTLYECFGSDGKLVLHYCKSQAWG
UniProt Q6ZNE5: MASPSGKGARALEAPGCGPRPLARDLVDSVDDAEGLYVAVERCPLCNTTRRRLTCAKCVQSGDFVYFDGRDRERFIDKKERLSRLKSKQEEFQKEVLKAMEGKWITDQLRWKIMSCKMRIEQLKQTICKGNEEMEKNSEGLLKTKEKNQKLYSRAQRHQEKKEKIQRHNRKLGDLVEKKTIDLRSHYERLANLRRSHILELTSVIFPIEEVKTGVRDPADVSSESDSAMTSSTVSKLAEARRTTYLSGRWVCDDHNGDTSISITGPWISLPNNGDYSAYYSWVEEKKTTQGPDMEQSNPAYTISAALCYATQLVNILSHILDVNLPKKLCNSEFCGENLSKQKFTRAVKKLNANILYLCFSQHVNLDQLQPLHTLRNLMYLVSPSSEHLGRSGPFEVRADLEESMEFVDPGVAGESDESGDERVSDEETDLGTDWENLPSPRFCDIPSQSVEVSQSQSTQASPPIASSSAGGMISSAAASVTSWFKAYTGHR

In experiment [1] the target is T1, GST-EVA1A60–152 (human) (UniProt Q9H8M9).
T1 sequence: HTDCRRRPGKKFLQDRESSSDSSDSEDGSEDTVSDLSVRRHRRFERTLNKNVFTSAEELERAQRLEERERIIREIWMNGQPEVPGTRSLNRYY
The experiment is described as follows: pull-down; GST or GST-EVA1A fusion proteins on glutathione-Sepharose 4B beads, mixed with whole-cell lysates of plasmid-transfected (HeLa) cells for 4 h at 4 °C, five washes, western blot; only the target purified.

Experiment [2] concerns the target T2, GST-EVA1A1–30 (human) (UniProt Q9H8M9).
T2 sequence: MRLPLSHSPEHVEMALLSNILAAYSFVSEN
The experiment is described as above.

The target in experiment [3] is T3, FLAG-EVA1A60–152 (human) (UniProt Q9H8M9).
T3 sequence: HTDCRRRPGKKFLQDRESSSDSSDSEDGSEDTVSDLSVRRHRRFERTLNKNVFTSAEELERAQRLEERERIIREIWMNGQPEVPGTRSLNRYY
The experiment is described as follows: co-IP; HeLa cells co-transfected for 24 h; total cell extracts in RIPA lysis buffer (1 mg per sample), IP with anti-FLAG or control mIgG and protein G sepharose, 4 h at 4 °C, five washes; GFP and FLAG detected by western blot.

The target in experiment [4] is T4, full-length FLAG-EVA1A (human) (UniProt Q9H8M9).
T4 sequence: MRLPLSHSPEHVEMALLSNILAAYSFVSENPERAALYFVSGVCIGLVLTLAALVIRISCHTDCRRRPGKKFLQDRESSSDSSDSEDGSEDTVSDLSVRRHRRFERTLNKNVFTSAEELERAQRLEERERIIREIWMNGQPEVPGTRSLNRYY
Described as above.

The target of experiment [5] is FLAG-ATG16L1_(1)_(–300) (UniProt Q676U5). Described as above.

These are yes or no findings as the source states them, for the method shown. Binding seen in cells or lysates may run through a third protein. Some entries that bind do so weakly or less than the wild type. Sequences can lack the tags named with a protein.

Turning to “ATG12–ATG5 conjugates (from UniProt O94817 1-140; Q9H1Y0 1-275) (complex)”, in experiment [1], the binding result is “binds weakly”.

Consider GFP-ATG14 (from UniProt Q6ZNE5 1-492), for which, in experiment [1], the binding entry is on record as “no binding”.

Regarding GFP–ATG16L1 (from UniProt Q676U5 1-607), the binding result in experiment [2] is recorded as “no binding”; in experiment [1], “binds”; in experiment [3], “binds”; in experiment [4] it was “binds”.

B1: GFP-ZFYVE1/DFCP1 (protein, UniProt Q9HBF4 1-777)
chain: MSAQTSPAEKGLNPGLMCQESYACSGTDEAIFECDECCSLQCLRCEEELHRQERLRNHERIRLKPGHVPYCDLCKGLSGHLPGVRQRAIVRCQTCKINLCLECQKRTHSGGNKRRHPVTVYNVSNLQESLEAEEMDEETKRKKMTEKVVSFLLVDENEEIQVTNEEDFIRKLDCKPDQHLKVVSIFGNTGDGKSHTLNHTFFYGREVFKTSPTQESCTVGVWAAYDPVHKVAVIDTEGLLGATVNLSQRTRLLLKVLAISDLVIYRTHADRLHNDLFKFLGDASEAYLKHFTKELKATTARCGLDVPLSTLGPAVIIFHETVHTQLLGSDHPSEVPEKLIQDRFRKLGRFPEAFSSIHYKGTRTYNPPTDFSGLRRALEQLLENNTTRSPRHPGVIFKALKALSDRFSGEIPDDQMAHSSFFPDEYFTCSSLCLSCGVGCKKSMNHGKEGVPHEAKSRCRYSHQYDNRVYTCKACYERGEEVSVVPKTSASTDSPWMGLAKYAWSGYVIECPNCGVVYRSRQYWFGNQDPVDTVVRTEIVHVWPGTDGFLKDNNNAAQRLLDGMNFMAQSVSELSLGPTKAVTSWLTDQIAPAYWRPNSQILSCNKCATSFKDNDTKHHCRACGEGFCDSCSSKTRPVPERGWGPAPVRVCDNCYEARNVQLAVTEAQVDDEGGTLIARKVGEAVQNTLGAVVTAIDIPLGLVKDAARPAYWVPDHEILHCHNCRKEFSIKLSKHHCRACGQGFCDECSHDRRAVPSRGWDHPVRVCFNCNKKPGDL
Regarding B1, the binding entry in experiment [1] is on record as “no binding”.

B2: GFP-EVA1A (protein, UniProt Q9H8M9 1-152)
chain: MRLPLSHSPEHVEMALLSNILAAYSFVSENPERAALYFVSGVCIGLVLTLAALVIRISCHTDCRRRPGKKFLQDRESSSDSSDSEDGSEDTVSDLSVRRHRRFERTLNKNVFTSAEELERAQRLEERERIIREIWMNGQPEVPGTRSLNRYY
As for B2, in experiment [5], the binding result is “no binding”.
